Consider 60 compounds from ChEMBL document CHEMBL1157539, “Thousands of chemical starting points for antimalarial lead identification” (Nature, 2010).

Whole data set: some 13,000 compounds, median “IFI” near 4, cut for the highest 2% near 17. The list shows a part of the results.

The experiment in a line: GSK_TCMDC: Inhibition Frequency Index (IFI). The number of non-kinase HTS assays where a compound showed > 50 % inhibition, expressed as a percentage of the number of such assays in which the compound was tested (-0 is zero). It is filed as functional.
Compound `c1ccc2[nH]c(-c3ccc(-c4ccc(CN5CCN(c6ccncc6)CC5)cc4)cc3)nc2c1` came in with an IFI of 6.94%.
Turning to `c1ccc(CNCc2cccc(-c3csc(-c4nc5ccccc5[nH]4)c3)c2)cc1`, the IFI was 4.76%.
The compound `Cc1ccc(C)c(NC(=O)Nc2ccc(C)c(-c3ccc(C(=O)Nc4ccncc4)cc3)c2)c1` gave an IFI of 14.1%.
The figure for `O=C(Nc1cccc(-c2csc(-c3nc4ccccc4[nH]3)c2)c1)c1cc(=O)c2ccccc2[nH]1` is 0.93%.
For `COc1c(C2CCN(CCCCNC(=O)c3cc(-c4ccc(Cl)cc4)[nH]c3C)CC2)ccc2c1CCCC2`, the IFI was determined as 12.4%.
`COc1ccc(-c2ccc(NC(=O)c3ccc(Cl)cc3)cc2)cc1CN1CCC(O)CC1` showed an IFI of 5.26%.
In the case of `Cc1cccc(-c2nc(Nc3ccncc3)c3cc(N(C)C)ccc3n2)n1` it was 4%; in that of `O=[N+]([O-])c1ccc2nccnc2c1`, 1.44%; in that of `CCCC[C@H](NC(=O)O[C@H](COc1ccc(OCc2ccccc2)cc1)C(C)(C)C)C(=O)C(=O)Nc1cc[nH]n1`, 7.83%.
`Clc1cccc(Cl)c1CCNCC1CCN(CC2CCCCC2)CC1` yielded an IFI of 6.52%.
In the case of `CN(C)CCNc1ncnc2c1[nH]c1ccc(Br)cc12` it was 0.76%.
The figure for `O=C(Nc1ccc(Cl)c(Cl)c1)N(Cc1ccccc1Br)C1CCNCC1` is 3.73%; for `CN(C)CCNCc1cccc(-c2ccc3c(Nc4cc(O)c(Cl)cc4F)ccnc3c2)c1` it is 3.68%; for `CC(C)(C)C1CCC(CC2=C(C(=O)O)c3ccccc3C2=O)CC1` (stereo not given) it is 1.46%.
The figure for `O=C(CN1CCCCC1)Nc1ccc(Nc2nccc(NCC(O)c3ccccc3)n2)cc1` (stereo not given) is 4.12%.
In turn, `O=C(/C=C/c1ccc(Cl)c(Cl)c1)NCCCCCN1CCC(C(=O)Nc2ccc(F)c(Cl)c2)CC1` gave an IFI of 13.2%.
Take `Cc1nn(-c2ccnc3cc(Cl)ccc23)c(C)c1C(=O)NCc1cc(Cl)cc(Cl)c1`: the IFI was -0%.
In the case of `Clc1cc2c(Nc3ccc(Oc4ccccc4)cc3)ccnc2cc1-c1ccc(CNCCN2CCOCC2)o1` it was 3.76%; in that of `COc1ccc(C=NNc2cc(C)nc3ccc(OC)cc23)c(OC)c1`, 2.94%; in that of `O=[N+]([O-])c1ccccc1C=NN=c1c2c([nH]c3ccccc13)CCCC2`, 4.32%.
The figure for `O=C(c1ccc([N+](=O)[O-])o1)N1CCN(c2nc3c(Cl)cccc3s2)CC1` is 5.45%; for `COc1ccccc1CCNc1nc(C)cc(NCCC(=O)NCCOc2ccccc2)n1` it is 10.5%; for `O=C(Nc1cccc(C2=NCCCN2)c1)Nc1cccc(C2=NCCCN2)c1` it is 0.74%.
In the case of `COc1cc(NCC(O)CNc2cc(OC)c3ccccc3n2)nc2ccccc12` it was 8.51%.
In turn, `O=C(Nc1ccccc1Oc1ccccc1)NC1CCN(c2ccnc3cc(Cl)ccc23)C1` (stereo not given) came in with an IFI of 4.62%.
In the case of `COc1ccc(CCC(C)(C)NCC(O)c2cccc(C(F)(F)F)c2)cc1` (stereo not given) it was 5.63%; in that of `Cc1cccc(CN2CCCN(Cc3ccc(C(=O)Nc4ccc(C)c(F)c4)cc3)CC2)c1`, 7.09%; in that of `Cc1cccc2nc(-c3ccc(-c4cccc(CNCCc5ccncc5)c4)s3)[nH]c12`, 5%.
The figure for `CC(C)NCc1ccc(-c2ccc(NC(=O)c3cccc(Cl)c3)cc2)cc1` is 13%.
Consider `Clc1ccc2c(NN=Cc3cccs3)ccnc2c1`, for which the IFI is -0%.
The figure for `O=C(NCC1CCN(Cc2cccc(C(F)(F)F)c2)C1)c1cc(-c2cccc(F)c2)cs1` (stereo not given) is 3.77%.
In turn, `NCc1ccc(-c2ccccc2CNC2CCN(Cc3ccccc3)CC2)cc1` registered an IFI of 6.62%.
The figure for `Cc1cc(N)nc2ccc(-c3ccc(CN)cc3)cc12` is 4.83%; for `COc1ccc(NC(=O)/C=C/c2ccccc2Cl)cc1OCCN1CCC(N(C)C)CC1` it is 0.7%.
`COc1ccc(-n2ccnc2)cc1CNC1CCN(CC2Cn3c(=O)ccc4ccc(F)c2c43)CC1` (stereo not given) gave an IFI of 1.85%.
`COc1cc2ccccc2cc1CCNCCCCNCCc1cc2ccccc2cc1OC` yielded an IFI of 14.8%.
In the case of `CCOC(=O)CNC(=O)c1cc(=O)c2ccccc2o1` it was 1.47%; in that of `COc1cc2c(cc1NC(=O)CN1CCN(C(=O)c3ccco3)CC1)oc1ccccc12`, 3.42%.
In the case of `Cc1cccc(-c2nc3[nH]c(=O)cc(NC(=O)C(C)C)n3n2)c1` it was 0%.
The figure for `CC(C)NCc1ccc(-c2ccc(CN3CCCC(c4ccccc4)C3)cc2)c(C(=O)NCC2CCCCC2)c1` (stereo not given) is 7.09%; for `CCOc1ccc(CCCON2C(=N)N=C(N)NC2(C)C)cc1` it is 3.52%; for `Cc1ccc(CON2C(N)=NC(N)=NC2(C)C)c(Cl)c1.Cc1ccc(CON2C(N)=NC(N)=NC2(C)C)cc1Cl` it is 2.88%.
The compound `Cc1nc(C)c(C2CCC(c3ccc(Cl)cc3)CC2)c(O)c1Cl` (stereo not given) yielded an IFI of 7.97%.
The figure for `Cc1cc(Nc2ccccc2)nc(NCCOc2ccccc2)n1` is 3.68%.
In turn, `COc1ccc(NC(=O)[C@H](Cc2ccccc2)Nc2cc(C)nc(NCCOc3ccccc3)n2)cc1` yielded an IFI of 4.65%.
As for `CCCC1(NC[C@@H](O)[C@H](Cc2ccccc2)NC(=O)c2cc(NCC)cc(N3CCCCS3(=O)=O)c2)CCCC1`, the IFI worked out at 1.45%.
In the case of `COc1ccc(NC(=O)Nc2ccc(C)c(-c3ccc(C(=O)NCCN4CCCC4)cc3)c2)cc1` it was 0%; in that of `CN1CCN(CCNc2c3ccccc3nc3ccc4ccccc4c23)CC1`, 8.45%; in that of `COC(=O)c1cccc(CNCc2ccc(-c3cccc(-c4nc5ccccc5[nH]4)c3)cc2)c1`, 2.91%.
In the case of `CC(C)N1CCC(NC(=O)N2CCCN(c3ncnc4cc(-c5ccc(Cl)cc5)sc34)CC2)CC1` it was 5.66%.
The figure for `COc1ccc(NS(=O)(=O)c2ccc(C(=O)Nc3ccc(C(F)(F)F)cc3)cc2)cc1N1CCN(CC2CC2)CC1` is 2.1%; for `CC(C)C[C@H](NC(=O)OC(C)(C)C)C(=O)Nc1ccc(Cc2ccc(NC(=O)[C@H](CC(C)C)NC(=O)OC(C)(C)C)cc2)cc1` it is 0.76%.
Compound `O=c1cc(NCCCNCc2ccc(Cl)c(Cl)c2)[nH]c2cc(F)cc(F)c12` displayed an IFI of 3.94%.
On to `Oc1ccc2nc(Nc3ccccc3)nc(NCCc3ccccc3)c2c1`, for which the IFI was determined as 10.7%.
The figure for `NC1=NC(c2ccccc2)(c2ccccn2)C(=O)N1CCCc1ccccc1` (stereo not given) is 3.33%.
In the case of `COc1cccc(CCc2cccc(CNC(C)=O)c2)c1` it was -0%; in that of `O=C(Nc1ccc(Cl)cc1)c1cccc2nc(C(F)(F)F)[nH]c12`, 21.3%.
In the case of `COc1ccc(Cl)cc1N1CCN(CCCNC(=O)c2ccc(-c3nc4cnccc4[nH]3)c(Br)c2)CC1` it was 1.44%.
Compound `COC(=O)Nc1cc(C(F)(F)F)ccc1N1CCCC(NS(=O)(=O)c2ccc(C(C)(C)C)cc2)C1` (stereo not given) gave an IFI of 1.54%.
For `O=C(Nc1ccccc1F)N(CCCn1ccnc1)Cc1csc(-c2ccc(CNCc3ccccc3)cc2)n1`, the IFI was determined as 5.41%.
